Assay results as given in the supplement of paper PMC10369915.
Some of the results follow. Rule as the data show it: active = 3.2 or more and inactive = the rest. Only a few entries rise above the background.

Target: SHP2 C-SH2 domain E139D
Experiment: enrichment score (SH2-bound / input frequency) (ratio); bacterial display of known human phosphotyrosine sites (pTyr-Var adds point mutants) read by sequencing; higher = stronger binding; tyrosines were phosphorylated by kinases first
Conditions: peptide library: Human pTyr
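Also: displayed peptides selected on beads carrying the immobilized SH2 domain, with library peptides lacking any tyrosine serving as negative controls.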

Enrichment score, inactive:
KDEVFSKYYTPVLAK [STA5A_HUMAN_682] 1.52, DKYGNEGYIPSNYVT [TEC_HUMAN_228] 0.679, YGVEDPEYAVTQLAQ [STML2_HUMAN_124] 0.691, GPLDGSLYAKVKKKD [TENS1_HUMAN_366] 0.729, EGPGGALYARVARRE [SREC2_HUMAN_628] 2.14, EGQMYQQYQQQAGYG [TFG_HUMAN_247] 0.568, APAEDSTYDEAENDL [SRC8_HUMAN_486_YA] 1.02, DFPAPPPYSAVTPPP [SYNP2_HUMAN_622] 0.474, MAALEKDYEEVGIDS [TBA4A_HUMAN_432] 1.18, GVLPSHYYESFLEKK [STAP2_HUMAN_22] 0.718, AQRCTISYRAPELFS [STK16_HUMAN_198] 1.14, AVKRYNDYKLDFRRQ [SRRT_HUMAN_175] 1.73, AREKLALYVAEALLH [SSBP3_HUMAN_23_YA] 1.97, SMPGNRLYVHPDSPN [TBX21_HUMAN_220] 0.638, TEATATDYHTTSHPG [B3AT_HUMAN_46] 0.574, TAKAVDGYVKPQIKQ [STA5B_HUMAN_699] 0.969, YPAEDSTYDEYENDL [SRC8_HUMAN_486] 0.847, ATTQLDDYLGGSPVQ [AVIL_HUMAN_85_YA] 0.572

Target: SHP2 C-SH2 domain wild-type
Experiment: as above
Conditions: peptide library: Human pTyr

Enrichment score, inactive:
KDEVFSKYYTPVLAK [STA5A_HUMAN_682] 3.13, DKYGNEGYIPSNYVT [TEC_HUMAN_228] 0.515, YGVEDPEYAVTQLAQ [STML2_HUMAN_124] 0.449, GPLDGSLYAKVKKKD [TENS1_HUMAN_366] 0.849, EGPGGALYARVARRE [SREC2_HUMAN_628] 0.469, EGQMYQQYQQQAGYG [TFG_HUMAN_247] 0.516, APAEDSTYDEAENDL [SRC8_HUMAN_486_YA] 1.21, DFPAPPPYSAVTPPP [SYNP2_HUMAN_622] 0.516, MAALEKDYEEVGIDS [TBA4A_HUMAN_432] 1.05, GVLPSHYYESFLEKK [STAP2_HUMAN_22] 0.879, AQRCTISYRAPELFS [STK16_HUMAN_198] 0.977, AVKRYNDYKLDFRRQ [SRRT_HUMAN_175] 1.66, AREKLALYVAEALLH [SSBP3_HUMAN_23_YA] 1.77, SMPGNRLYVHPDSPN [TBX21_HUMAN_220] 0.502, TEATATDYHTTSHPG [B3AT_HUMAN_46] 0.505, TAKAVDGYVKPQIKQ [STA5B_HUMAN_699] 0.852, YPAEDSTYDEYENDL [SRC8_HUMAN_486] 1.46, ATTQLDDYLGGSPVQ [AVIL_HUMAN_85_YA] 0.41

Target: SHP2 N-SH2 domain L43F
Experiment: as above
Conditions: peptide library: Human pTyr

Enrichment score, inactive:
KDEVFSKYYTPVLAK [STA5A_HUMAN_682] 0.877, DKYGNEGYIPSNYVT [TEC_HUMAN_228] 0.752, YGVEDPEYAVTQLAQ [STML2_HUMAN_124] 0.654, GPLDGSLYAKVKKKD [TENS1_HUMAN_366] 0.633, EGPGGALYARVARRE [SREC2_HUMAN_628] 0.868, EGQMYQQYQQQAGYG [TFG_HUMAN_247] 0.554, APAEDSTYDEAENDL [SRC8_HUMAN_486_YA] 1.25, DFPAPPPYSAVTPPP [SYNP2_HUMAN_622] 0.454, MAALEKDYEEVGIDS [TBA4A_HUMAN_432] 1.07, GVLPSHYYESFLEKK [STAP2_HUMAN_22] 0.785, AQRCTISYRAPELFS [STK16_HUMAN_198] 1.29, AVKRYNDYKLDFRRQ [SRRT_HUMAN_175] 1.58, AREKLALYVAEALLH [SSBP3_HUMAN_23_YA] 1.78, SMPGNRLYVHPDSPN [TBX21_HUMAN_220] 0.547, TEATATDYHTTSHPG [B3AT_HUMAN_46] 0.887, TAKAVDGYVKPQIKQ [STA5B_HUMAN_699] 0.856, YPAEDSTYDEYENDL [SRC8_HUMAN_486] 0.828, ATTQLDDYLGGSPVQ [AVIL_HUMAN_85_YA] 0.583

Target: SHP2 N-SH2 domain T42A
Experiment: as above
Conditions: peptide library: Human pTyr

Enrichment score, inactive:
KDEVFSKYYTPVLAK [STA5A_HUMAN_682] 1.64, DKYGNEGYIPSNYVT [TEC_HUMAN_228] 0.498, YGVEDPEYAVTQLAQ [STML2_HUMAN_124] 0.54, GPLDGSLYAKVKKKD [TENS1_HUMAN_366] 0.762, EGPGGALYARVARRE [SREC2_HUMAN_628] 0.585, EGQMYQQYQQQAGYG [TFG_HUMAN_247] 0.437, APAEDSTYDEAENDL [SRC8_HUMAN_486_YA] 1.63, DFPAPPPYSAVTPPP [SYNP2_HUMAN_622] 0.526, MAALEKDYEEVGIDS [TBA4A_HUMAN_432] 1.03, GVLPSHYYESFLEKK [STAP2_HUMAN_22] 0.632, AQRCTISYRAPELFS [STK16_HUMAN_198] 1.02, AVKRYNDYKLDFRRQ [SRRT_HUMAN_175] 1.34, AREKLALYVAEALLH [SSBP3_HUMAN_23_YA] 1.83, SMPGNRLYVHPDSPN [TBX21_HUMAN_220] 0.592, TEATATDYHTTSHPG [B3AT_HUMAN_46] 0.518, TAKAVDGYVKPQIKQ [STA5B_HUMAN_699] 0.896, YPAEDSTYDEYENDL [SRC8_HUMAN_486] 1.36, ATTQLDDYLGGSPVQ [AVIL_HUMAN_85_YA] 0.493

Target: SHP2 N-SH2 domain T52S
Experiment: as above
Conditions: peptide library: Human pTyr

Enrichment score, inactive:
KDEVFSKYYTPVLAK [STA5A_HUMAN_682] 0.788, DKYGNEGYIPSNYVT [TEC_HUMAN_228] 0.527, YGVEDPEYAVTQLAQ [STML2_HUMAN_124] 0.616, GPLDGSLYAKVKKKD [TENS1_HUMAN_366] 0.772, EGPGGALYARVARRE [SREC2_HUMAN_628] 0.659, EGQMYQQYQQQAGYG [TFG_HUMAN_247] 0.507, APAEDSTYDEAENDL [SRC8_HUMAN_486_YA] 1.66, DFPAPPPYSAVTPPP [SYNP2_HUMAN_622] 0.561, MAALEKDYEEVGIDS [TBA4A_HUMAN_432] 0.959, GVLPSHYYESFLEKK [STAP2_HUMAN_22] 0.746, AQRCTISYRAPELFS [STK16_HUMAN_198] 1.4, AVKRYNDYKLDFRRQ [SRRT_HUMAN_175] 1.41, AREKLALYVAEALLH [SSBP3_HUMAN_23_YA] 1.82, SMPGNRLYVHPDSPN [TBX21_HUMAN_220] 0.553, TEATATDYHTTSHPG [B3AT_HUMAN_46] 0.737, TAKAVDGYVKPQIKQ [STA5B_HUMAN_699] 0.854, YPAEDSTYDEYENDL [SRC8_HUMAN_486] 1.09, ATTQLDDYLGGSPVQ [AVIL_HUMAN_85_YA] 0.515

Target: SHP2 N-SH2 domain wild-type
Experiment: as above
Conditions: peptide library: Human pTyr

Enrichment score, inactive:
KDEVFSKYYTPVLAK [STA5A_HUMAN_682] 1.1, DKYGNEGYIPSNYVT [TEC_HUMAN_228] 0.444, YGVEDPEYAVTQLAQ [STML2_HUMAN_124] 0.618, GPLDGSLYAKVKKKD [TENS1_HUMAN_366] 0.984, EGPGGALYARVARRE [SREC2_HUMAN_628] 0.385, EGQMYQQYQQQAGYG [TFG_HUMAN_247] 0.85, APAEDSTYDEAENDL [SRC8_HUMAN_486_YA] 1.24, DFPAPPPYSAVTPPP [SYNP2_HUMAN_622] 0.49, MAALEKDYEEVGIDS [TBA4A_HUMAN_432] 1.22, GVLPSHYYESFLEKK [STAP2_HUMAN_22] 0.667, AQRCTISYRAPELFS [STK16_HUMAN_198] 1.3, AVKRYNDYKLDFRRQ [SRRT_HUMAN_175] 1.72, AREKLALYVAEALLH [SSBP3_HUMAN_23_YA] 2.27, SMPGNRLYVHPDSPN [TBX21_HUMAN_220] 0.515, TEATATDYHTTSHPG [B3AT_HUMAN_46] 0.602, TAKAVDGYVKPQIKQ [STA5B_HUMAN_699] 0.89, YPAEDSTYDEYENDL [SRC8_HUMAN_486] 1.61, ATTQLDDYLGGSPVQ [AVIL_HUMAN_85_YA] 0.439
